Results reported in PubChem BioAssay AID504332 (National Center for Advancing Translational Sciences (NCATS), 2011).
Values joined by “and” are separate entries in the source; they are usually repeats but may differ in a detail not shown here. Equal entries are not always repeated. Screen size: about 350,000 compounds; about 31,000 (8.9%) were called active. Inconclusive means that the source gave no clear call. Such entries were picked first, then a sample of the others. Calls follow the shape of the dose curve; as a rule, active = well fitted inhibition curve with a large enough effect; inconclusive = small, poorly fitted or top-dose-only effect; inactive = no such curve, though single readings can be large or run the other way. A potency beside an inconclusive call is a rough fit, not a confirmed value.

What follows are molecules tested against Histone-lysine N-methyltransferase EHMT2 (Homo sapiens) (UniProt Q96KQ7) (assay: qHTS Assay for Inhibitors of Histone Lysine Methyltransferase G9a). Details: G9a H3K9 monomethylation, AlphaScreen, 2 h; activity, negative = inhibition: at 59 µM (top of the series) unless noted.
Chain of UniProt Q96KQ7 (Q96KQ7 whole entry, looked up): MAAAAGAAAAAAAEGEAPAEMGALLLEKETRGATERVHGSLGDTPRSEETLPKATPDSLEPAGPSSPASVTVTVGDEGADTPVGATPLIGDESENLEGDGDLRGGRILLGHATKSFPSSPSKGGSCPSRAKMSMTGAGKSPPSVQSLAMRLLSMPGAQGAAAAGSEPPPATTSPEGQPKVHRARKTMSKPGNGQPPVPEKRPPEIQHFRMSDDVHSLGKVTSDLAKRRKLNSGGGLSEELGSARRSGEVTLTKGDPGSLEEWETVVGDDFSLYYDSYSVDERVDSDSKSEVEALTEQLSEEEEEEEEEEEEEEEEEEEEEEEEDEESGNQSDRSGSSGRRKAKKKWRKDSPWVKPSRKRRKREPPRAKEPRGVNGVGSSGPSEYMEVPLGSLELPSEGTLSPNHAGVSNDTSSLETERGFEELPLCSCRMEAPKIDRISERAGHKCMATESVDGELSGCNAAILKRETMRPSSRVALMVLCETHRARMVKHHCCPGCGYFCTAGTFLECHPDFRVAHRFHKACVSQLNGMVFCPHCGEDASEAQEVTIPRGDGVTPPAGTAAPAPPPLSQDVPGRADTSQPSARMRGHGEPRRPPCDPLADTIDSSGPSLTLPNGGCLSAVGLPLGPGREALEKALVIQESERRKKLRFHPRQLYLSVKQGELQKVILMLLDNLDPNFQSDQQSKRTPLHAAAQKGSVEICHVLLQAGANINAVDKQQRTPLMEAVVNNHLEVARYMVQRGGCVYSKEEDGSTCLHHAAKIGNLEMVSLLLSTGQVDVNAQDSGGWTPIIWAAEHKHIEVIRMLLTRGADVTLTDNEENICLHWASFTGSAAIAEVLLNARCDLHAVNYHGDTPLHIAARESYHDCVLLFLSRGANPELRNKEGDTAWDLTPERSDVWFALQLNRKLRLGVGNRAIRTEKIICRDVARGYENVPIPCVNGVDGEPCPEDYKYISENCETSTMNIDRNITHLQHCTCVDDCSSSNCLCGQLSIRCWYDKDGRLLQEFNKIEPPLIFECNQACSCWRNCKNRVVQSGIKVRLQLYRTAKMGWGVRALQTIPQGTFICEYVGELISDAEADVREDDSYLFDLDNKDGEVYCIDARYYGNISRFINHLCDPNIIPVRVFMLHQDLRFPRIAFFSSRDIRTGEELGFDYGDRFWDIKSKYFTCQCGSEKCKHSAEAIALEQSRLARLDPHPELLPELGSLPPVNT
Summary of the method: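 Chemiluminescent proximity detection of H3K9 monomethylation, read after 10 min bead incubation in the dark. Reaction: 20 nM G9a, 500 nM biotin-H3K9 peptide, 20 uM SAM cofactor, 2 h, room temperature, following 15 min enzyme-compound preincubation.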
% is scaled to controls: 0 for no effect and ±100 for the full control effect; potency is read from the fitted curve at half-maximal effect; tags tell the direction and shape of the fitted curve.
Also: nearly all actives have a fitted effect of over 75% in size.

Compound | Potency | activity, negative = inhibition
CC(C)(C)c1ccc(S(=O)(=O)N2CCC(c3ccncc3)CC2)cc1 | inactive | –
Cc1ccc(NC(=O)CN2C(=O)COc3ccc(S(=O)(=O)N4CCOCC4)cc32)c(Cl)c1 | inactive | –
O=C(Nc1cccnc1)C1CC(c2ccccc2O)=NO1 (stereo not given) | inconclusive: 8.91 µM [inhibitor, partial curve, poor fit] | –
O=C(O)c1cc2c(cc1NC(=O)C1CCCC1)OCCO2 | inconclusive: 1.58 µM [inhibitor, single point] | –
Cc1ccccc1NCC(=O)c1ccc(Br)cc1 | inconclusive: 22.4 µM [inhibitor, single point] | –
CC(C)c1ccccc1-n1cc[nH]c1=S | active: 3.98 µM | –
O=C(NNS(=O)(=O)c1ccc([N+](=O)[O-])cc1)c1cnn(-c2ccccc2)c1-n1cccc1 | inconclusive: 31.6 µM [inhibitor, single point] | –
Cc1cc(C)c(CNC(=O)c2cc(C3CC3)nc3c2cnn3C(C)C)c(=O)[nH]1 | inconclusive: 39.8 µM [inhibitor, single point] | –
O=C(c1cccc([N+](=O)[O-])c1)N1CCN(CCc2ccncc2)CC1 | inactive | –
O=C1CCN(S(=O)(=O)c2ccc(Cl)cc2)N1 | inconclusive: 39.8 µM [inhibitor, single point] | –
O=C1CN(C(=O)c2ccco2)C(c2ccccc2)c2cc(Cl)ccc2N1 (stereo not given) | inconclusive: 50.1 µM [inhibitor, partial curve] | –
CCOc1ccccc1NC(=O)c1nn(-c2ccc(OC)cc2)c(=O)c2c1c1ccccc1n2C | inactive | –
CCOc1ccc(C(C(=O)NCC2CCCO2)N(Cc2cccnc2)C(=O)c2snc(C(N)=O)c2N)cc1 (stereo not given) | inactive | –
COc1cc(Br)cc(/C=N/NC(=O)Cc2ccc(C(F)(F)F)cc2[N+](=O)[O-])c1O | inactive | –
Cc1c(Cl)cccc1NC(=O)Cn1c(-c2ccc(F)cc2)noc1=O | inactive | –
O=C(NCCC(=O)N1CCN(S(=O)(=O)c2ccccc2F)CC1)Nc1ccccc1 | inconclusive: 15.8 µM [inhibitor, single point] | –
O=C(OCC(=O)N1CCN(S(=O)(=O)c2ccc(Cl)cc2)CC1)C1CCC1 | inactive | –
Cc1cccc(C(=O)Nc2sc3c(c2C(=O)O)CCCC3)c1 | inconclusive: 3.98 µM [inhibitor, single point] and inconclusive: 79.4 µM [inhibitor, partial curve] | –
COc1ccc(N(CC(=O)N2CCN(c3ccc(F)cc3)CC2)S(=O)(=O)c2c(C)nn(C)c2C)cc1 | inactive | –
O=C(NC(=S)Nc1ncccn1)c1ccc(F)cc1 | active: 8.91 µM | –
CCOC(=O)C1CCN(CC(=O)Nc2cc(S(=O)(=O)N3CCOCC3)ccc2C)CC1 | active: 22.4 µM | –
Nc1ccccc1C(=O)NNC(=O)C(=O)/C=C(\O)c1ccccc1 | inconclusive: 70.8 µM [inhibitor, partial curve, poor fit] | –
O=C1CC(O)(C(F)F)Oc2ccc3ccccc3c21 (stereo not given) | inconclusive: 50.1 µM [inhibitor, partial curve, poor fit] | –
CSC1=NSC2=NC(=O)/C(=C/c3coc4ccccc4c3=O)C(=N)N12 | inconclusive: 10 µM [inhibitor, single point] | –

Compound | Potency | activity, negative = inhibition
Nc1cc(OC(=O)c2ccco2)nn1S(=O)(=O)c1ccc(F)cc1 | inconclusive: 25.1 µM [inhibitor, partial curve, poor fit] | –
O=C(c1cccc(N2C(=O)c3ccccc3C2=O)c1)N1CCCCCC1 | active: 22.4 µM | –
O=C(CSC1=NS(=O)(=O)c2ccccc2N1)Nc1nccs1 | inactive | –
COc1cccc(CNC(=O)CC(c2ccc(C)cc2)N2Cc3ccccc3C2=O)c1 (stereo not given) | inactive | –
CCOc1ccc(OCC)c(NC(=O)CSc2nc3c(c(=O)n(C)c(=O)n3C)n2C(C)C)c1 | inconclusive: 1.12 µM [inhibitor, full curve, poor fit] | –
CN1CCc2cc(NC(=O)Nc3cccnc3)ccc21 | – | inactive: 43.9% [at 12.7 µM]
COc1cccc(CNC(=O)c2cccc(NC(=O)c3nsc4ccccc34)c2)c1 | inactive | –
COc1cc(Cl)c(NC(=O)CN(C)S(=O)(=O)c2ccc3[nH]c4c(c3c2)CCCC4)c(OC)c1 | inconclusive: 10 µM [inhibitor, partial curve] | –
Nc1nc(CN2CCN(c3ccccc3F)CC2)nc(N2CCCc3ccccc32)n1 | inconclusive: 50.1 µM [inhibitor, partial curve, poor fit] | –
COc1ccc([C@H]2[C@H](C(=O)OC(C)(C)C)N3N=Cc4ccccc4C3C23C(=O)c2ccccc2C3=O)c(OC)c1 (stereo not given in full) | inconclusive: 25.1 µM [inhibitor, single point] | –
COc1ccccc1-c1ccnc2c(-c3ccc(Br)cc3)c(C)nn12 | inactive | –
COc1cccc(CNC(=O)CCS(=O)(=O)c2cc3c4c(c2)CCN4C(=O)CC3)c1 | inactive | –
COc1ccc(OCc2nnc3n2N=C(c2ccc(OC)cc2)CS3)cc1 | active: 50.1 µM | –
CSc1ccc(NC(=O)NCCN2CCc3ccccc3C2)cc1 | inconclusive: 50.1 µM [inhibitor, partial curve, poor fit] | –
O=C(CSc1ncccn1)NN=C1CCCCCCC1 | inactive | –
Cc1ccc(-n2ncc3c2ncn2c(-c4ccncc4)nnc32)cc1 | inconclusive: 100 µM [inhibitor, single point] | –
COc1cccc(CN2CCCC(C(=O)c3ccc4c(c3)OCO4)C2)c1O (stereo not given) | inconclusive: 89.1 µM [inhibitor, partial curve, poor fit] | –
CN(C(=O)CSc1nc2ccccc2[nH]1)C1CCS(=O)(=O)C1 (stereo not given) | inconclusive: 39.8 µM [inhibitor, single point] | –
CCCNS(=O)(=O)c1ccc(OC)c(Cl)c1Cl | – | inconclusive: -137% [inhibitor]
Cc1ccc(C)c(/C(O)=C2/C(=O)C(=O)N(CCN3CCOCC3)C2c2ccc(C)o2)c1 (stereo not given) | active: 14.1 µM | –
O=C(COc1ccc(F)cc1)Nc1cccc(OCc2cc(=O)n3ccccc3n2)c1 | inactive | –
COc1ccc(N(C(=O)CNC(=O)c2ccco2)C(C(=O)NC2CCCCC2)c2ccco2)cc1 (stereo not given) | inactive | –
Cc1ccc(-n2nc(C)c3c(C)cc(=O)n(CC(=O)NCc4ccc(OC(C)C)cc4)c32)cc1 | inactive | –
O=C(Nc1cccs1)OCCN1CCN(Cc2ccccc2)CCC1=O | active: 44.7 µM | –

Compound | Potency | activity, negative = inhibition
COc1ccc(Nc2ncc(C(=O)Nc3cc(C)ccc3OC)c3ccccc23)cc1 | inactive | –
COc1ccc(N2CCN(c3oc(COc4ccc(Cl)cc4)nc3C#N)CC2)cc1 | – | inconclusive: -78.6% [inhibitor]
O=C(Oc1cccc(C(=S)N2CCCCC2)c1)c1ccccc1 | inconclusive: 39.8 µM [inhibitor, partial curve, poor fit] | –
CCOc1ccc(N=C2NN=C(c3cc(C)n(CC4CCCO4)c3C)CS2)cc1 (stereo not given) | active: 15.8 µM | –
CC(=O)c1ccc(NS(=O)(=O)Cc2ccccc2)cc1 | inactive | –
O=C(c1ccc2c(=O)n3c(nc2c1)CCCCC3)N1CCN(c2ccc(F)cc2)CC1 | inactive | –
CN1C(=O)C(O)(C2OC(C)(C)CCC2=O)c2ccccc21 (stereo not given) | inconclusive: 89.1 µM [inhibitor, partial curve, poor fit] | –
CCCCn1c(N)c(N(CCOC)C(=O)c2sc3ccccc3c2Cl)c(=O)[nH]c1=O | – | inactive: 0.384% [at 0.501 µM]
CCn1cc(C(=O)NCc2ccc(Cl)cc2)c(=O)c2cc(S(=O)(=O)N(C)C)ccc21 | inactive | –
O=C(NCCc1ccccn1)c1ccc(COc2ccccc2)o1 | inconclusive: 10 µM [inhibitor, partial curve, poor fit] | –
CCOC(=O)c1sc(Nc2ccccc2Cl)nc1C | inconclusive: 17.8 µM [inhibitor, full curve, poor fit] | –
N#CC1=C(S)N(c2ccccc2)C(c2ccc(-c3ccccc3Cl)o2)NC1=O (stereo not given) | inconclusive: 31.6 µM [inhibitor, single point] | –
O=C(COC(=O)CCc1ccc(S(=O)(=O)N2CCOCC2)cc1)Nc1ncc(C(F)(F)F)cc1Cl | inconclusive: 79.4 µM [inhibitor, partial curve] | –
Nc1c(Cl)cc2c(c1Oc1ccccc1)C(=O)c1ccccc1C2=O | active: 10 µM | –
COc1cc2c(cc1OC)CN(Cc1nc3ccsc3c(=O)[nH]1)CC2 | – | inconclusive: -59.5% [inhibitor]
COc1ccc(NC(=O)CN(C)CC(=O)NCC(=O)Nc2ccc(F)cc2)cc1 | inconclusive: 44.7 µM [inhibitor, partial curve] | –
CC(C)[C@H](NC(=O)[C@@H]1Cc2c([nH]c3ccccc23)C2c3ccccc3C(=O)N21)C(=O)N1CCC[C@@H]1C(=O)O (stereo not given in full) | inconclusive: 89.1 µM [inhibitor, single point] | –
Cc1cccc2c1-c1sc(C(=O)NCCCN3CCN(c4cccc(Cl)c4)CC3)cc1CO2 | inactive | –
O=C(Nc1ccncc1)c1cccc(S(=O)(=O)N2CCN(c3ccc(F)cc3)CC2)c1 | inconclusive: 50.1 µM [inhibitor, partial curve] | –
CC(C)c1ccc(/C=N/N2CCN(c3ccccn3)CC2)cc1 | inconclusive: 31.6 µM [inhibitor, partial curve, poor fit] | –
COc1ccccc1NC(=O)CN1CCN(CC(=O)Nc2ccc(OC)c(OC)c2)CC1 | inconclusive: 79.4 µM [inhibitor, single point] | –
Cc1cc(NC(=O)CSCCc2ccncc2)no1 | inconclusive: 89.1 µM [inhibitor, single point] | –
